Reference: PubChem BioAssay AID488969 (Vanderbilt High Throughput Screening Facility, 2010)
In all, about 110,000 compounds were measured (“z-score”: median about -0.1, highest 2% from about 2 on). The list shows a part of the results.

molecular target: Metabotropic glutamate receptor 8 (Rattus norvegicus) (UniProt P70579); assay: mGluR8 Gi/Go-coupled signaling modulation – cell-based, rat, thallium flux, HTS, primary screen (AID 488969); conditions: HEK293 rat mGluR8, GIRK (G protein-gated inwardly rectifying potassium channel) thallium flux, FluoZin2; at 10 µM; stronger effect = higher value; submaximal glutamate (EC20) added with thallium
Chain of UniProt P70579 (P70579 whole entry, looked up): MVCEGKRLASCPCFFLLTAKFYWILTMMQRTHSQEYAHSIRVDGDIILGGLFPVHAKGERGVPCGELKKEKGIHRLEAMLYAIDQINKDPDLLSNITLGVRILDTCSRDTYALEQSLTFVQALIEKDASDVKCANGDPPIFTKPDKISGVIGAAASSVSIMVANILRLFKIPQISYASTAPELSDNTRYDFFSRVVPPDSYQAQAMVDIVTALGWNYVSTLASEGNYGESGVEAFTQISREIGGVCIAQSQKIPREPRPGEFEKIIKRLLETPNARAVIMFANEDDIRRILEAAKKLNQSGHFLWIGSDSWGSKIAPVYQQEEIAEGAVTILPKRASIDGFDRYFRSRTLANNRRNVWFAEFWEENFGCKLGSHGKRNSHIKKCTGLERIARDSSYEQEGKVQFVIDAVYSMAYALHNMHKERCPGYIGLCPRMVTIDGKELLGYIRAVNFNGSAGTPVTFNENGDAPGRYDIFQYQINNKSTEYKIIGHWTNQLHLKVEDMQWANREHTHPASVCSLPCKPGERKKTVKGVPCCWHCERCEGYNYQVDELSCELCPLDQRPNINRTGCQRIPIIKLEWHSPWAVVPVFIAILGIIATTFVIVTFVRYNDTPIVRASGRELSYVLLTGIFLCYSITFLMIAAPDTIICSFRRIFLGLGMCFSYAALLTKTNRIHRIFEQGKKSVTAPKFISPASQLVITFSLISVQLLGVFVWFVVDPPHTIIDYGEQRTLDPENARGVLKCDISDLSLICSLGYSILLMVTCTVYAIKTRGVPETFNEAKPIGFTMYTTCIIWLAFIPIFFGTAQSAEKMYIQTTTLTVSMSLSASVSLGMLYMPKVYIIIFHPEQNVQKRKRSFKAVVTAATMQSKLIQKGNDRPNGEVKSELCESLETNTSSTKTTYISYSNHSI

| Structure (SMILES) | z-score |
| --- | --- |
| Cn1c(NC(=O)Cc2cccs2)cc(=O)n(C)c1=O | 0.422 |
| COc1ccc(N/C(=C(/C(Cl)=C(Cl)Cl)[N+](=O)[O-])n2nnc3ccccc32)cc1OC | -0.105 |
| O=C(COC(=O)c1ccccc1)Nc1ccccc1Sc1ccccc1 | -0.256 |
| COc1ccc(-n2ncc3c(NCCCN4CCOCC4)ncnc32)cc1 | -0.0546 |
| O=Cc1ccc(OC(=O)c2cc(Cl)nc3ccccc23)cc1 | -0.764 |
| Cn1c(=O)c(Sc2ccc(Cl)cc2)c(O)c2ccccc21 | -0.203 |
| COc1cc(/C=N/NC(=O)/C(=C/c2ccccc2)CCO)ccc1O | -0.0886 |
| COC(=O)c1ccc(N2C(=O)CC(N3CCOCC3)C2=O)cc1 (stereo not given) | -0.101 |
| Cc1cc(NC(=O)CCSc2ccccc2)ccc1Br | -0.204 |
| CN1C(C)(C)CC(NC(=O)CCC(=O)NC2CC(C)(C)N(C)C(C)(C)C2)CC1(C)C | 0.24 |
| CCCNC(=O)NS(=O)(=O)c1cnccc1Sc1ccc(Cl)cc1 | 0.596 |
| CC1=C(C(=O)Nc2cccnc2)C(c2cccnc2)n2ncnc2N1 (stereo not given) | 0.0175 |
| O=C(/C=C/c1ccc(S(=O)(=O)N2CCOCC2)cc1)NCc1ccc(Cl)cc1 | -0.216 |
| CCOC(=O)c1cccnc1SCC(=O)N(CC)c1cccc(C)c1 | -0.316 |
| O=C1CCN=C(Nc2ccc(F)cc2)N1Cc1ccccc1 | -0.265 |
| Cc1cc(C)nc(CC(N)=O)n1 | 0.0131 |
| COc1ccc(C(=O)Nn2c(SCC(=O)NCC3CCCO3)nc3ccccc3c2=O)cc1 (stereo not given) | 0.00105 |
| O=C(Nc1ccc(NC(=O)C2CCCCC2)nc1)c1ccco1 | 0.221 |
| COc1ccc(NS(=O)(=O)c2cccc(C(=O)OCC(=O)Nc3cc(C)on3)c2)cc1 | 0.186 |
| CCc1ccc(NC(=O)CNC(=O)c2cn(-c3ccccc3OC)c(=O)c3ccccc23)cc1 | -1.25 |
| CCN(CC)C(=O)c1cc2cc([N+](=O)[O-])ccc2s1 | 0.53 |
| Cc1cccc(C)c1OCCSc1n[nH]c(N)n1 | 0.141 |

| Structure (SMILES) | z-score |
| --- | --- |
| CN(CC(=O)NC1CCCCC1)S(=O)(=O)c1cccc2cccnc12 | -0.35 |
| CS(=O)(=O)N(Cc1ccccc1)c1ccc(C(=O)NC2CCCCC2O)cc1 (stereo not given) | 0.252 |
| O=C(Nc1ccccc1)c1cnc(-c2ccccc2)nc1-c1ccccc1 | 0.428 |
| O=C(O)C1CCC(=O)N1C1c2ccccc2Oc2ccccc21 (stereo not given) | -0.398 |
| COc1ccccc1NC(=O)COC(=O)c1ccc2c(c1)nc(C)n2-c1ccccc1 | -0.283 |
| COCCn1nnnc1C(c1ccccn1)N1CCN(c2cc(Cl)ccc2C)CC1 (stereo not given) | -0.577 |
| COc1cccc(NC(=O)CCC(=O)NCc2ccco2)c1 | -0.0294 |
| CC(C)c1ccc(NC(=O)COC(=O)c2c[nH]c(=O)[nH]c2=O)cc1 | -0.346 |
| COCCn1c(Cc2ccccc2)nnc1SCc1nc2ccccc2c(=O)[nH]1 | -0.0784 |
| CCC(C)(C)NC(=O)/C=C/c1cccs1 | -0.306 |
| COc1cc(OC)cc(C(=O)N[C@H](C(=O)OCC(=O)NC(C)c2ccccc2)C(C)C)c1 (stereo not given in full) | -0.103 |
| CCCCCCCCCC[n+]1cccc(C(=O)N(CC)CC)c1 | -0.257 |
| COc1ccc(-c2ccc(C3C(C#N)=C(N)Oc4n[nH]c(C)c43)o2)cc1 (stereo not given) | -0.191 |
| COc1cccc(-c2nn(C)c3sc(C(=O)N4CCOCC4)cc23)c1 | -0.172 |
| CC(C)(C)c1ccc(C(=O)Nc2ccc(Cl)cc2)cc1 | -0.752 |
| C[n+]1cnn2c1SCC1(COC1)C2 | 0.148 |
| O=C(NC1c2ccccc2-c2ccccc21)N1CCCCC1 | 0.253 |
| O=C(O)CSc1ncnc2sc3c(c12)CCC3 | 0.715 |
| OCC#CCSc1nnc(-c2ccccc2Br)o1 | -0.633 |
| COc1ccc(C(C)=O)cc1COC(=O)CNC(=O)c1ccc(Cl)cc1 | 0.143 |
| O=C(N/N=C\c1c(O)ccc2ccccc12)c1ccc(S(=O)(=O)N2CCCCC2)cc1 | -0.225 |
| CC1(C)CC(NC(=O)C23CCC(C)(/C(=N/O)C2)C3(C)C)CC(C)(C)N1 (stereo not given) | -0.753 |

| Structure (SMILES) | z-score |
| --- | --- |
| CCOC(=O)/C(C#N)=C\C1=C(N2CCCC2)CC(C)(CC)OC1 (stereo not given) | -0.0463 |
| COc1cc(/C=N/N=C(/N)c2nonc2N)cc(Br)c1OCc1cccc(C)c1 | 0.0652 |
| Cc1ccc2c(Cl)cc(Cl)c(OCC(=O)Nc3cc(C)on3)c2n1 | 0.0628 |
| Cc1cc(C)n(-c2cc(N3CCOCC3)ncn2)n1 | 0.706 |
| CC(NS(=O)(=O)c1ccc(CCC(=O)NCc2cccnc2)cc1)c1ccccc1 (stereo not given) | 0.0386 |
| Cc1ccc(N2C(=O)CS/C2=C(\C(Cl)=C(Cl)Cl)[N+](=O)[O-])cc1 | -0.494 |
| Cn1cnnc1SCC(=O)N1N=C2/C(=C/c3ccco3)CCCC2C1c1ccco1 (stereo not given) | 0.28 |
| CCc1nc(Sc2nnnn2-c2ccccc2)c2c3c(sc2n1)CCCC3 | -0.413 |
| CCc1ccccc1NC(=S)N(Cc1cccnc1)Cc1ccco1 | -0.132 |
| Oc1ccccc1-c1nc2cnccn2c1Nc1ccc2c(c1)OCCO2 | -0.132 |
| COc1ccc(N2CCN(Cc3cc(OC)c(O)c([N+](=O)[O-])c3)CC2)cc1 | -0.284 |
| [O-]/C(=C(\C(=S)Nc1cccc2ccccc12)[n+]1ccccc1)c1ccc2c(c1)OCCO2 | 0.312 |
| COc1cc(NC(=S)NC(=O)c2ccc(F)cc2)ccc1NC(=O)c1ccco1 | -0.305 |
| Cc1cc(C)cc(NC(=O)CSCc2nc3c(nnn3Cc3ccc(F)cc3)c(=O)[nH]2)c1 | -0.0802 |
| Cn1c(CNS(=O)(=O)c2ccc(Cl)cc2)n[nH]c1=S | 0.121 |
| COc1ccc(N2CCC(CNS(=O)(=O)c3cccc(C(F)(F)F)c3)C2)cc1 (stereo not given) | 0.746 |
| CC(CN(C(N)=O)c1ccccc1O)C(=O)O (stereo not given) | 0.238 |
| COc1ccc2c(c1)c(C(O)CN1CCC(Cc3ccccc3)CC1)c(C)n2C (stereo not given) | -0.0548 |
| Cc1ccc(C)n1-c1ccc(N2CCOCC2)cc1 | 0.179 |
| CCOc1ccc(Nc2nc3c(c(=O)[nH]2)CCCC3)cc1 | 0.341 |
| Cc1cc(C(F)F)n2ncc(C(=O)O)c2n1 | 0.566 |
| CCOC(=O)c1sc(NC(=O)C2CC=CCC2C(=O)O)nc1C (stereo not given) | -0.0679 |

| Structure (SMILES) | z-score |
| --- | --- |
| CC(C)c1ccc2[nH]c(O)c(N=NC(=O)c3cccc(S(=O)(=O)N4CCCCC4)c3)c2c1 | -0.156 |
| CCN(CC)S(=O)(=O)c1cc(C(=O)Oc2cccc(-c3cnc4ccccc4n3)c2)ccc1OC | -0.111 |
| CCOC(=O)Cn1c(S(=O)(=O)Cc2ccc(F)cc2)nc(-c2ccccc2)c1-c1ccccc1 | -0.277 |
| CCOC(=O)c1cnc(SCC(=O)N2CCc3ccccc32)nc1N | 0.604 |
| CC(C)COc1ccc(/C(=N/O)c2ccccc2)cc1 | 0.298 |
| O=C(CCc1nc2ccccc2c(=O)[nH]1)OCc1cccc(C(F)(F)F)c1 | 1.22 |
| O=C(CN1CCN(S(=O)(=O)c2ccc3ccccc3c2)CC1)N1CCc2ccccc2C1 | 0.0837 |
| COc1ccc(-c2cc(=O)n(CCC#N)[nH]2)cc1 | -0.346 |
| Cn1cc(CNC(=O)Nc2ccc3c(c2)OCO3)cn1 | -0.149 |
| Cc1cc(=O)oc2cc(OCC(=O)N/N=C/c3cc([N+](=O)[O-])ccc3O)ccc12 | 0.213 |
| O=C1CC(SC(=Nc2ccccc2)Nc2ccccc2)C(=O)N1c1cccc(Cl)c1 (stereo not given) | -0.104 |
| COc1ccc(OC)c(NS(=O)(=O)c2ccc(NC(=O)c3ccc(NS(C)(=O)=O)cc3)cc2)c1 | 0.00942 |
| CC(C)(C)SCCNC(=O)c1ccc(NS(C)(=O)=O)cc1 | -0.0865 |
| Cc1ccccc1OCCCC(=O)NCc1ccco1 | 0.25 |
| O=C(CN1C(=O)c2ccccc2C1=O)Nc1nnc(C2CCCO2)s1 (stereo not given) | 0.703 |
| CCOC(=O)C1CCN(S(=O)(=O)c2ccc3[nH]c(=O)oc3c2)CC1 | 0.146 |
| CCn1c(CNc2ccc(Cl)cc2)nnc1SCC(=O)OC1CCCCC1 | -0.678 |
| NC(=O)c1nsc(C(=O)N(CC(=O)NCc2ccc3c(c2)OCO3)C2CCCCC2)c1N | -0.00881 |
| CCn1c(-c2cc(C3CC3)nc3ccccc23)n[nH]c1=S | -0.258 |
| COc1ccc(COC(=O)c2n[nH]c3ccccc23)cc1F | -1.22 |
| CN(C)S(=O)(=O)c1cccc(C(=O)NCC2CCCO2)c1 (stereo not given) | -0.16 |
| COc1ccc(NC(=O)COC(=O)c2c3c(nc4ccccc24)CCCC3)cc1Cl | 0.142 |

| Structure (SMILES) | z-score |
| --- | --- |
| CCCn1c(SCC(=O)Nc2ccccc2C(=O)OCC)nc2c1c(=O)n(C)c(=O)n2C | -0.41 |
| C/C(=C/C(=O)N1CCc2ccccc21)C(=O)O | 0.0648 |
| C=CCn1c(SCc2ccccc2C#N)nnc1-c1ccccc1O | -0.419 |
| O=C1c2ccccc2C(=O)N1CCCCSc1nnc2ccccn12 | 0.111 |
| CCOC(=O)C1CCCN(S(=O)(=O)c2ccc(C)cc2)C1 (stereo not given) | -0.394 |
| CCc1ccc2[nH]c(=O)c(C(c3nnnn3CC3CCCO3)N3CCN4CCCC4C3)cc2c1 (stereo not given) | 0.281 |
| COc1ccc(-c2cc(-c3cccs3)c(C#N)c(SCC(=O)NCc3ccccc3)n2)cc1 | -0.0113 |
| COc1ccc(CCCC(=O)Nc2ccccc2F)cc1 | 0.0152 |
| CC(C)(C)OC(=O)NCCc1nnc(SCC(N)=O)o1 | -0.0953 |
| Cc1cccc2c(-c3ccccc3)cc(=O)[nH]c12 | -0.146 |
| COC(=O)c1c(C)[nH]c(C(=O)CSc2ccc(Cl)cc2)c1C | 0.107 |
| CC1(C)Cc2c(C#N)c(SCCOc3ccccc3)nc(N3CCOCC3)c2CO1 | -0.481 |
| CCN1C(=O)/C(=C2/Sc3ccc(OC)cc3N2C)SC1=Nc1ccc(C(C)=O)cc1 | -0.0997 |
| O=C(O)c1ccc(OCCn2ccnc2)cc1 | -0.124 |
| COc1cccc(C(=O)NC2CCN(C(=O)N3c4ccccc4Sc4ccccc43)CC2)c1 | -0.497 |
| O=c1[nH]cc([N+](=O)[O-])cc1Br | -0.212 |
| Cc1ccc(/C=N/NC(=O)c2nc3nc(C)cc(C)n3n2)cc1 | 0.431 |
| Clc1ccc2c(NCc3ccccn3)ncnc2c1 | 0.0515 |
| COc1ccc(CCNc2oc(-c3ccccc3OC)nc2C#N)cc1OC | -0.803 |
| O=C(CSc1cnc2ccccc2n1)c1ccc(F)cc1 | -0.268 |
| COc1ccc(N(C(=O)c2ccco2)S(=O)(=O)c2cccc([N+](=O)[O-])c2)cc1 | 0.0908 |
| O=C(c1ccc(COc2ccc3c(c2)CCC3)o1)N1CCN(c2ccccc2)CC1 | 0.0784 |
